The results in this text go back to patent US20110200585A1.

What is called Kd is a measure of binding affinity in units of concentration. The koff is the first-order rate constant of dissociation. Read a low koff as slow dissociation. What is called kon is the second-order rate constant of association. Low readings indicate slow association, high ones fast association.

The target of the experiment is human CD127 ECD (human) (UniProt P16871). In words: SPR, BIAcore 3000; antibody captured on anti-human IgG (Fc), CD127 ECD 16-512 nM as analyte, 1:1 Langmuir fit. (Surface plasmon resonance follows binding to a sensor surface in real time, without labels.)

B1: Biotin-labelled 1A11 H3L4 (antibody)
heavy: QVQLVQSGAEVKKPGASVKVSCKASGYTFTGYTMNWVRQAPGQGLEWMGLINPYNGVTSYNQKFKGRVTLTRDTSISTAYMELSRLRSDDTAVYYCARGDGNYWYFDVWGQGTTVTVSS[letters of human IgG1 constant region not shown]
light: EIVLTQSPATLSLSPGERATLSCSASSSVTYMHWYQQKPGQAPRPLIYEISKLASGIPARFSGSGSGTDFTLTISSLEPEDFAVYYCQEWNYPYTFGGGTKVEIKRTVAAPSVFIFPPSDEQLKSGTASVVCLLNNFYPREAKVQWKVDNALQSGNSQESVTEQDSKDSTYSLSSTLTLSKADYEKHKVYACEVTHQGLSSPVTKSFNRGEC
modifications: biotin-labelled (chain and sites not stated)
Take B1: the Kd was determined as 2.67 nM, the koff came to 0.000452 s⁻¹ and the kon came out at 169000 M⁻¹ s⁻¹.
